The list shows a part of the results.

B1: chr12:6347307:6347408:-|3pUTR|ENSG00000111319|msi1|FALSE|unique (ssRNA)
RNA: GGGAGUUCUACAGUCCGACGAUCGUCUGCUCCUCCUCUUGAACUUGGGUGGGAAACCCCACCCAAAAGCCCCCUUUGUUACUUAGGCAAUUCCCCUUCCCUGACUCCCGAGGGCUAGGGCUAGAGCAGACCCGGGUAAGUAAACAACAGAGGAUUGAGCAUCA
B2: chr14:92163265:92163366:+|3pUTR|ENSG00000165934|msi1|FALSE|bound_elsewhere (ssRNA)
RNA: GGGAGUUCUACAGUCCGACGAUCUAAUAUCAGACUCGAAUUACUAUUUCAUUCUAUUUCAAAUGCUUAUAAAGCUACUAUUGUAGAUUAUAGUGUUAAUGCAAAGUUUACAGACUUUUGAUAUGGAAAACCAGAUAAAACAAUCAACAGAGGAUUGAGCAUCA
B3: ENSG00000198589:be:win_3351|CDS|ENSG00000198589|bound_else_gene|NA|bound_elsewhere_windowed (ssRNA)
RNA: GGGAGUUCUACAGUCCGACGAUCCAGUCCUACUGAGGAAGCUAAUCUACCCACAGAGCUCCAAGAUAACAGUUUGUCUCCAGCUGCAUCUGAAGCCGGUGAAAAACUGGACAUGUUUGGUAAUGAUGACAAAUUAAUAUUUCACAACAGAGGAUUGAGCAUCA
B4: chr7:38725943:38726055:-|3pUTR|ENSG00000006715|unk|FALSE|unique (ssRNA)
RNA: GGGAGUUCUACAGUCCGACGAUCGAAAUUUUGGGGUCCAUAGUGAAUAUUUUGUUAUUUAUUUGUUUGGCUCAUUCUUUAUAUAGUAAUGGAAACAUAAGUCUAGGAGUUAGAAAUGAAUUUUUUAGACCUUAGUAAAACCAUCAACAGAGGAUUGAGCAUCA
B5: chr12:54350855:54350965:+|3pUTR|ENSG00000111481|msi1|total|mutant (ssRNA)
RNA: GGGAGUUCUACAGUCCGACGAUCUUGCCCUGACAUUUUUGUAAAUUCUGUGCCCUUUGCUGCCGCUACACUUCAGAUUAAAGCCGGAGAAAGAAUGUGCUGAGUGUUUUCCUCCCUUUGCCUCUACCUGGCCCUCAUCCCAACCAACAGAGGAUUGAGCAUCA
B6: chr17:5489330:5489445:+|CDS|ENSG00000167842|unk|total|mutant (ssRNA)
RNA: GGGAGUUCUACAGUCCGACGAUCACGUUGACUUUCUUUGAUGAGCUUCAUAAUGUUGGCAGAGAUCAUGGGACCCGUGAUUUCCGGGAGAGUUCCGUAUCCCUGGUUCAGAACUCCAGAAAACUACAGAACAUCCGAGACAAUCAACAGAGGAUUGAGCAUCA
B7: chrX:135156539:135157311:-|three_prime_utr|ENSG00000169551|control|control|control (ssRNA)
RNA: GGGAGUUCUACAGUCCGACGAUCUUUAUUCUGUUUAUCUUUCCUUUUAUGAGCAGUAAAGGGGCUGGUUUAACUUAAAAGGUUAGCUUAGUAAGCCUAAAUAGUAUUUUAUAUAUGACUUUUCUGGCAAAUCUAAUUGAGACACAACAGAGGAUUGAGCAUCA
B8: chr7:128862928:128863052:+|CDS|ENSG00000128524|unk|FALSE|unique (ssRNA)
RNA: GGGAGUUCUACAGUCCGACGAUCUAAGCUCAUCGCAGUGAUCGGAGACGAGGACACGGUGACUGGUUUCCUGCUGGGCGGCAUAGGGGAGCUUAACAAGAACCGCCAUCCCAAUUUCCUGGUGGUGGAGAAGGAUACAACCAUCAACAGAGGAUUGAGCAUCA
B9: chr9:19286831:19286940:+|CDS|ENSG00000137145|unk|total|mutant (ssRNA)
RNA: GGGAGUUCUACAGUCCGACGAUCAUUCCAGGAUGUGAAGUGAUCCCCGCCACACCCUAUGGUCGCUGUGCCAAUGUCAACAACCGUUCAACUACUUCACAAAGAAUCUUUAUCACUUAUCGAAGGGCUCCUCCAGUUCGACCCCAACAGAGGAUUGAGCAUCA
B10: chr5:95604386:95604487:+|3pUTR|ENSG00000164291|msi1|total|mutant (ssRNA)
RNA: GGGAGUUCUACAGUCCGACGAUCCCUGCCAUCCAGUUCCCCCUCCAAGAAGCAAGUACCGAAACCACCUGCUUACGCAUUUUCCGAGAUUGGCCACAAAUUUAUAAACAAAUGUAUAUAUUCCUUUCCCCCUACACAAACGGUCAACAGAGGAUUGAGCAUCA
B11: chr4:143221337:143221438:+|3pUTR|ENSG00000170185|unk|FALSE|unique (ssRNA)
RNA: GGGAGUUCUACAGUCCGACGAUCUUGAAAGGUAAUAGAUUUUCCAGAAGUAAAAUCUGAUGGUUCUAAAUCAAUCAAUGUGAUAGUUCAUUUUUAACUCUUAGAAGAAUUCAGAGGAAAUUAACCCAGCUAAGUAAAAAAUCUCAACAGAGGAUUGAGCAUCA
B12: ENSG00000198589:be:win_2051|CDS|ENSG00000198589|bound_else_gene|NA|bound_elsewhere_windowed (ssRNA)
RNA: GGGAGUUCUACAGUCCGACGAUCUACUGACUAUGCAUGAGGAUGACAAUCUAAUGGAUGUCCUACAGCUGCUUGUUGCAUUAAUGUCAGAACACCCUAACUCUAUGAUUCCUGCUUUUGACCAAAGGAAUGGGUUACGUGUUACAACAGAGGAUUGAGCAUCA
B13: chr5:138511037:138511180:-|CDS|ENSG00000120705|unk|total|mutant (ssRNA)
RNA: GGGAGUUCUACAGUCCGACGAUCCACGGGCAAGUACUGUUUUGGCGUUGAAGAUACACUAAAGGCUUUGGAAAUGGGAGCUGCCGAAAUUCUAACCGUCUAUGAAAAUCUGGAUAUAAUGAGAUAUGUUCUUCAUUGCCAAGGCAACAGAGGAUUGAGCAUCA
B14: chr2:16549458:16552935:-|three_prime_utr|ENSG00000197872|control|control|control (ssRNA)
RNA: GGGAGUUCUACAGUCCGACGAUCUUGCUACUGGAGUCCUUUAACAACAUCUAUAACGAUAAAAAAUUCCUAAUUGUUUGUGGUAGUAUUUUAAUUCUAGAUGUGUUAUCUCUCUGGGAAGUAUAGUUUAUAGAAACACAAAAUCAACAGAGGAUUGAGCAUCA
B15: chr10:58277235:58277315:+|CDS|ENSG00000122873|msi1_unk|total|mutant (ssRNA)
RNA: GGGAGUUCUACAGUCCGACGAUCUAAAGAUCAUCGAAAUAAAGCUAUGAUAAACCUUCACAUCCAGAAAGACAACCCCAAGACCGUACAUGCUUUUGACAUGGAGGAUUUGGGAGAUAAAGCUGUGUACUGCCGUUGUUGGAGCAACAGAGGAUUGAGCAUCA
B16: chr6:11183298:11183399:-|3pUTR|ENSG00000111859|msi1|total|mutant (ssRNA)
RNA: GGGAGUUCUACAGUCCGACGAUCACAUUUCACAUUUUUAAAACCAAAUGUUCAAUCUGUAUUACUCUUUGCCGUCUUGUAUGCCGAGGCUAUUUUUAAAUCAUUAAAUUUUCCGAUCUCUGUUUUCACCGCCACUGGGUUUUCCAACAGAGGAUUGAGCAUCA
B17: chr1:193096648:193096749:-|CDS|ENSG00000023572|msi1_unk|total|mutant (ssRNA)
RNA: GGGAGUUCUACAGUCCGACGAUCCAACAGGUUCCAAGAAUAUUUGUCAAUGGUACUUUUAUUGGAGGUGCAACUGACACUCACCGGCUUCACAAAGAAGGAAAAUUGCUCCCACCCGUUCAUCAGUGUUAUUUAAAAAAAAGUCAACAGAGGAUUGAGCAUCA
B18: ENSG00000124766:be:win_3151|3pUTR|ENSG00000124766|bound_else_gene|NA|bound_elsewhere_windowed (ssRNA)
RNA: GGGAGUUCUACAGUCCGACGAUCUUUCUCAGUGUAUUUUUGUAAAAAAUAUAUAAAGGGGGUGUUAAUCGGUGUAAAUCGCUGUUUGGAUUUCCUGAUUUUAUAACAGGGCGGCUGGUUAAUAUCUCACACAGUUUAAAAAAUCAACAGAGGAUUGAGCAUCA
B19: chr19:50958630:50959316:-|three_prime_utr|ENSG00000167755|control|control|control (ssRNA)
RNA: GGGAGUUCUACAGUCCGACGAUCAUGUGACAUCUACCUCCCGACCUACCACCCCACUGGCUGGUUCCAGAACGUCUCUCACCUAGACCUUGCCUCCCCUCCUCUCCUGCCCAGCUCUGACCCUGAUGCUUAAUAAACGCAGCGCAACAGAGGAUUGAGCAUCA
B20: chr4:52598568:52598706:-|three_prime_utr|ENSG00000109189|control|control|control (ssRNA)
RNA: GGGAGUUCUACAGUCCGACGAUCGCAUUAUAUCACUAUUGUGAAAAGUCACGGCUUCUGGCUUUUGUUUGAUGAUGACAUUGUAGAGGUUGGUUUGCAGAUUAUUCUCCAGUAGUCAUAGAGCAUCAGUAGUAUUUCGGAGAACAACAGAGGAUUGAGCAUCA
B21: ENSG00000198589:be:win_4851|CDS|ENSG00000198589|bound_else_gene|NA|bound_elsewhere_windowed (ssRNA)
RNA: GGGAGUUCUACAGUCCGACGAUCCCAUGUGGAAGUAACUCCUCACACAGCACCUCCUGGUGUCAGUGCAGGCCCAGAUGCAAUCAGCGAGGUGCUAUCUACUCUUUCUUUAGAAGUCAAUAAGUCUCCGGAAACCAAAAAUGACAACAGAGGAUUGAGCAUCA
B22: chr19:38730201:38730298:+|3pUTR|ENSG00000130402|msi1_unk|total|mutant (ssRNA)
RNA: GGGAGUUCUACAGUCCGACGAUCCAGAGAAUUACUAUUUACUUUAUUAACUUACGGAUUUAUUAUAUAAAUAUAUAUUCACCCCGCAACAUAUCUCUGCCGUCUCUCCUGCUCUCAUAAUGAAGACACCGCCGAUUCUCUGCCCAACAGAGGAUUGAGCAUCA

The assay concerns the target MSI1 full-length (mouse, UniProt Q61474 1-362). The assay is described as follows: nsRBNS (natural sequence RNA bind-n-seq); RBNS binding buffer (assumed for nsRBNS): 25 mM Tris pH 7.5, 150 mM KCl, 3 mM MgCl2, 0.01% Triton X-100, 500 ug/ml BSA, 20 U/ml SUPERase-In, 4 C; UNK is unkempt and MSI1 is Musashi-1; names of the RNAs are library labels; protein concentration not given here; high values mean tight binding.
UniProt Q61474, sequence (Q61474 whole entry): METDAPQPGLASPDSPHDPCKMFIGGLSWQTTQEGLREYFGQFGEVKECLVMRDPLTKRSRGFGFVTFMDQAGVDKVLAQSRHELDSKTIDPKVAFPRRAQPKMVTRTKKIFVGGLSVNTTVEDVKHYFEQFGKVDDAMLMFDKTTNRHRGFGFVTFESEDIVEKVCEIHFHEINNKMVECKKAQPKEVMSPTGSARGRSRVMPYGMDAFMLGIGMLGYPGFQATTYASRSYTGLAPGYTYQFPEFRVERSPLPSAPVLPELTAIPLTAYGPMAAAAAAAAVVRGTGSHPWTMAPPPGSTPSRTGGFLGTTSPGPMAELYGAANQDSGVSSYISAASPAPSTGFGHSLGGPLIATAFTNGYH
Take B1: the binding signal is 1.39 enrichment R.

B2 returned a binding signal of 1.76 enrichment R.

As for B3, the binding signal was 0.241 enrichment R.

As to B4, the binding signal was 6.63 enrichment R.

B5 gave a binding signal of 0.502 enrichment R.

In turn, B6 displayed a binding signal of 0.323 enrichment R.

The molecule B7 yielded a binding signal of 1.36 enrichment R.

In turn, B8 gave a binding signal of 0.46 enrichment R.

With B9, the binding signal turned out to be 0.635 enrichment R.

B10 yielded a binding signal of 1.44 enrichment R.

As to B11, the binding signal was determined as 2.78 enrichment R.

B12 showed a binding signal of 0.269 enrichment R.

For the molecule B13, the binding signal was 0.42 enrichment R.

Molecule B14 displayed a binding signal of 25 enrichment R.

Consider B15, for which the binding signal was found to be 0.346 enrichment R.

B16: the binding signal came to 0.663 enrichment R.

B17 had a binding signal of 0.509 enrichment R.

B18 had a binding signal of 0.602 enrichment R.

In the case of B19, the binding signal was found to be 0.792 enrichment R.

The molecule B20 came in with a binding signal of 9.94 enrichment R.

B21: the binding signal was 0.817 enrichment R.

Regarding B22, the binding signal amounted to 5.81 enrichment R.

The record behind these values is article PMC12136788.
